Experimental data published in PubChem BioAssay AID1345083 (National Center for Advancing Translational Sciences (NCATS), 2018).
The whole screen tested about 94,000 compounds, of which about 6,200 (6.6%) were called active. Inconclusive means that the source gave no clear call. Such entries were picked first, then a sample of the others. The call rests on the fitted dose curve; in most records, active means well fitted inhibition curve with a large enough effect; inconclusive means small, poorly fitted or top-dose-only effect; inactive means flat fitted curve, though single readings scatter. Where the call is inconclusive, the potency comes from a doubtful curve fit.

Test: Cytotoxic Profiling in HEK 293 Cell Line of Diverse Libraries Using Quantitative High-Throughput Screening; further: nearly all actives have a fitted effect of over 60% in size
Details: HEK 293 viability, ATP luminescence (CellTiter-Glo), 48-72 h; activity change, negative = cytotoxicity: at 115 µM (top of the series) unless noted; series mostly up to 115 µM
Summary of the method: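 Pintool-delivered compounds were incubated with HEK 293 cells (250 cells/well) at 37 degree Celsius for 48 or 72 hr. ATP-dependent luminescence (CellTiter-Glo) then reported remaining viable cells.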
On the % scale 0 is the no-effect control and ±100 the full control effect; potency means the concentration at half of the fitted maximal effect; tags describe the fitted curve by direction and shape.

Row | Compound | outcome | activity change, negative = cytotoxicity | Potency
1 | Cc1nnc2ccc(N3CCC(NC(=O)NC(C)C)CC3)nn12 | inactive [at 172 µM] | – | –
2 | COC(=O)N1CCC(c2nn(-c3ccccn3)c(=O)[nH]2)CC1 | inactive [at 172 µM] | – | –
3 | CN1CCN([C@@H]2[C@H](O)[C@H](CO)O[C@@H]2CNC(=O)c2ccccc2)CC1 | – | inactive: 0.464% [at 172 µM] | –
4 | CCn1ccc(C(=O)NC2CCCN(c3cc(-c4ccc(Cl)cc4)[nH]n3)C2)n1 (configuration not stated) | – | – | inconclusive: 50.1 µM [inhibitor, partial curve, poor fit]
5 | CCCS(=O)(=O)N1CCC(Oc2ccc(-c3noc(-c4ccccc4)n3)cc2)C1 (configuration not stated) | – | – | inconclusive: 56.2 µM [inhibitor, partial curve, poor fit]
6 | O=C(NC1CCN(c2cc(-c3cccs3)[nH]n2)CC1)c1ccccc1Cl | – | – | inconclusive: 79.4 µM [inhibitor, partial curve]
7 | COc1ccc(-c2ccc3nc(-c4cc(C)cc(C)c4)oc3c2)c(OC)c1OC | – | – | inconclusive: 79.4 µM [inhibitor, single point]
8 | CCOc1ccc(C(=O)N[C@H]2C[C@@H]3OCC[C@H]23)cc1OCC | – | inactive: 2.5% | –
9 | COc1ccccc1CNC(=O)C1N(C(C)C)C(=O)C12CCCC2 (configuration not stated) | – | inactive: -3.08% | –
10 | CC1(C)[C@H](Cc2cc(CN3CCCCC3)on2)C[C@@H]1NCc1ccccn1 | – | – | inconclusive: 39.8 µM [inhibitor, partial curve, poor fit]
11 | COc1ccc(-c2ccnc3nc(-c4cccs4)nn23)cc1 | – | – | inconclusive: 35.5 µM [inhibitor, partial curve, poor fit]
12 | Cc1nn(-c2ccccc2)c(Oc2ccccc2F)c1CCC(=O)NC(C)C | – | – | inconclusive: 35.5 µM [inhibitor, full curve]
13 | CC(C)c1nc2c(c(-c3ccc(Cl)cc3)n1)CCN(CC1CCCCC1)CC2 | – | – | inconclusive: 89.1 µM [inhibitor, partial curve, poor fit]
14 | COc1cc(NC(=O)c2cc3c(N4CCCC4)nc(C)cn3n2)cc(OC)c1OC | – | – | active: 44.7 µM
15 | COCCOCc1nc(C2CCN(C(=O)c3[nH]nc4c3CCc3cc(OC)ccc3-4)CC2)no1 | – | – | inconclusive: 56.2 µM [inhibitor, partial curve, poor fit]
16 | CN(C(=O)C1C2C(=O)N(C3CCCCCC3)C[C@@]23C=C[C@@H]1O3)C1CCSCC1 (some centres not stated) | – | inactive: -5.69% | –
17 | COCc1ccccc1-c1cn(C)c(=O)n2cc(COc3ccc(Cl)cc3)nc12 | – | – | inconclusive: 112 µM [inhibitor, partial curve, poor fit]
18 | Cc1cccc(C)c1-c1nc(C(=O)N2CCOCC2)n2ccccc12 | – | inactive: -19.5% | –
19 | NC1(C(=O)N2CCCC(N3CCN(Cc4ccc5c(c4)OCO5)CC3)C2)CC1 (configuration not stated) | – | – | inconclusive: 44.7 µM [inhibitor, partial curve, poor fit]
20 | Cc1noc(-c2cccc(OC3CN(C(=O)NCCc4ccccc4)C3)c2)n1 | – | – | inconclusive: 89.1 µM [inhibitor, single point]
21 | CC(C)CN1CCN(C(=O)c2ccc3c(c2)C(O)CCCCCN3C)CC1 (configuration not stated) | – | – | inconclusive: 100 µM [inhibitor, single point]

Row | Compound | outcome | activity change, negative = cytotoxicity | Potency
22 | Cc1onc(C(=O)N2CCC(C)(c3noc(-c4ccncc4)n3)CC2)c1Cn1cc(Cl)cn1 | – | – | inconclusive: 50.1 µM [inhibitor, partial curve, poor fit]
23 | COc1ccc(CN2CCOC[C@H]2c2ncc(-c3ccc(OC)cc3)[nH]2)cc1 | – | – | active: 89.1 µM
24 | CC(C)(Oc1nn(CCOc2ccccc2)c2ccccc12)C(=O)NCC1CCOCC1 | – | – | inconclusive: 79.4 µM [inhibitor, partial curve]
25 | O=C(NCc1ccco1)N1CCOc2ccc(CN3CCc4ccccc4C3)cc2C1 | – | – | inconclusive: 39.8 µM [inhibitor, partial curve, poor fit]
26 | CC(C)NC(=O)C[C@@H]1O[C@H](CNC[C@H]2O[C@@H](CC(=O)NC(C)C)[C@H](O)[C@@H]2O)[C@@H](O)[C@H]1O | inactive | – | –
27 | CC(C(=O)N1CCC(C(=O)N2CCCCCCNC(=O)CC2)CC1)c1ccccc1 (configuration not stated) | – | inactive: -3.58% | –
28 | O=C(NCc1ccc(F)cc1)C1CCCN(Cc2cccc(-c3cccs3)c2)C1 (configuration not stated) | – | – | active: 39.8 µM
29 | COc1ccccc1C(=O)NCCC1CCN(C(=O)Nc2ccccc2F)CC1 | – | – | inconclusive: 79.4 µM [inhibitor, single point]
30 | COc1ccc(CNC(=O)c2cc3n(n2)CC(c2ccc(Cl)cc2)OC3)c(OC)c1 (configuration not stated) | – | – | inconclusive: 70.8 µM [inhibitor, partial curve, poor fit]
31 | Cc1cc(C)n(CCC(=O)NCC2CCN(c3cc(-c4ccc(Cl)cc4)[nH]n3)CC2)n1 | – | – | active: 35.5 µM
32 | Cc1nn2c(c1-c1ccccc1C(C)C)N(C(=O)c1ccnn1C)CCC2 | – | – | inconclusive: 126 µM [inhibitor, single point]
33 | CC(=O)N1CC2(Cc3ccccc31)CN([S+](=O)([O-])c1ccc(C)cc1)C2 | – | – | inconclusive: 28.2 µM [inhibitor, partial curve, poor fit]
34 | Cc1ncoc1C(=O)N1CCOc2ccc(CCC(=O)NCC3CC3)cc2C1 | – | inactive: -0.463% | –
35 | COc1ccc(C(=O)Nc2ncc(-c3ccc(OC)nc3)c3c2OCC3)cc1 | – | inactive: -21% [at 172 µM] | –
36 | Cc1cc(C)cc(-c2ccc(CN3CCCC3C(=O)N3CCC(Cc4ccccc4)CC3)cc2)c1 (configuration not stated) | – | – | active: 20 µM
37 | COCCC1(NS(=O)(=O)N(C)C)CCN(S(C)(=O)=O)CC1 | – | inactive: -9.38% | –
38 | COc1ccc2[nH]c3c(c2c1)CCNC31CCN(C(=O)Cn2nc(C)cc2C)CC1 | – | – | inconclusive: 100 µM [inhibitor, single point]
39 | CCn1cc(S(=O)(=O)N2CCC3(CC2)CC(OCCOC)CCO3)cn1 (configuration not stated) | – | inactive: -6.12% | –
40 | Cc1ccc(C2Cn3cnc(C(=O)N4CCC(C(=O)NCCCc5ccccc5)CC4)c3CO2)cc1 (configuration not stated) | – | inactive: 2.69% | –
41 | CN(Cc1ccsc1)CC1(O)CCCN(CCCc2ccccc2)C1=O (configuration not stated) | – | – | inconclusive: 63.1 µM [inhibitor, partial curve, poor fit]
42 | O=C(NCC1CC1)c1ccc2nnc(-c3cc(C(F)(F)F)cc(C(F)(F)F)c3)n2c1 | – | – | inconclusive: 50.1 µM [inhibitor, partial curve, poor fit]
